Test results reported in patent publication US20260055155A1, “INCRETIN ANALOG AND USE THEREOF” (SHANGHAI MINWEI BIOTECHNOLOGY CO., LTD, priority 2023, published 2026).
pEC50: −log10 of the molar value. Part of at least one peptide drawing is inferred or uncertain, most often the ends. Some compounds share one wording; it may come from a single statement. Numbered stars: 1 amine (or outer) side, 2 acyl side, 3 side chain; on linkers, the order of the positions; unused ones are H or OH. Square brackets hold non-standard residues; d marks the D form. Side chains are listed from the residue outwards. Peptide text beside a SMILES is read from it. * marks the point of attachment. C20 diacid = O=C(O)CCCCCCCCCCCCCCCCCCC(=O)*; γGlu = O=C(O)[C@H](CCC(=O)[*:2])N[*:1]; AEEA = NCCOCCOCC(=O)O; Aib = CC(C)(N)C(=O)O

Experiments:
GCG receptor = GCG receptor (Homo sapiens, UniProt P47871); assay: in vitro GCG activity, CHO-K1 cells containing reporter gene and expressing GCG receptor; type: cell-based; design: expressed in transfected cells; host or cells: CHO-K1
human GLP-1 receptor = human GLP-1 receptor (Homo sapiens, UniProt P43220); assay: in vitro GLP-1 activity, CHO-K1 cells expressing human GLP-1 receptor and CRE-luciferase; type: cell-based; design: expressed in transfected cells; host or cells: CHO-K1
GIP receptor = target: T1, GIP receptor (Homo sapiens, UniProt P48546); assay: in vitro GIP activity, CHO-K1 cells containing reporter gene and expressing GIP receptor; type: cell-based
T1 construct: expressed in transfected cells; host or cells: CHO-K1
T1 sequence (P48546 22-466): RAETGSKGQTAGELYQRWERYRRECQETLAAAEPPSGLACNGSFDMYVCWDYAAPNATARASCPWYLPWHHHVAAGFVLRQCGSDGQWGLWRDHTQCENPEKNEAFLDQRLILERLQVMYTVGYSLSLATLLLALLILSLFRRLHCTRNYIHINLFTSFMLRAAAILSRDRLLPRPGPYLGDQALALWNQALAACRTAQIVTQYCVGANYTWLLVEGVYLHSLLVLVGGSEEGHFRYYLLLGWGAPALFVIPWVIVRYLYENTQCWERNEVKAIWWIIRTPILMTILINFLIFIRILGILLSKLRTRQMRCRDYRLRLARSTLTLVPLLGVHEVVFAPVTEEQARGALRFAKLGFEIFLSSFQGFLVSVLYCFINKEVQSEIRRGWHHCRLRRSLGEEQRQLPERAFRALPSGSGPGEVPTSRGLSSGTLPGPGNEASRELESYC

DIO mice = assay: body weight reduction by multiple subcutaneous injections in DIO mice; type: in vivo, C57BL/6Nju mice
Experimental: The purpose of this example is to investigate the effects of subcutaneous injection of the polypeptide on body weight and other indicators of DIO mice, and to compare its pharmacological effects with Tirzepatide.
7-week-old C57BL/6Nju mice were fed with a high-fat diet (of about 20% protein and about 60% fat) for 12 weeks for modeling. Feeding conditions: 12 hours of light and 12 hours of darkness cycle every day, ad libitum feeding, temperature 20-25° C., relative humidity 40-70%, ventilation frequency of 10-15 times/hour. According to body weight, water consumption, and food intake, the mice were randomly divided into groups the day before administration. Group design: Tirzepatide group (30 nmol/kg), Polypeptide 1 group (30 nmol/kg), normal control group and model control group, with 6 mice in each group. Subcutaneous injection treatment was administered twice a week for 5 consecutive weeks, for a total of 10 administrations. After the administration, the body weight, OGTT, body fat ratio, blood lipids and liver function of the mice were measured. The data are shown as mean±standard error (X±s), and statistically analyzed by One-Way ANOVA.
The results are expressed as mean±SEM for 6 mice in each group.

[1] = human serum albumin system, in words
[2] = 30 nmol/kg subcutaneous twice a week for 5 weeks
[3] = DIO mice, 30 nmol/kg subcutaneous twice a week for 5 weeks, mean (SEM in the line below)
[4] = DIO mice, 30 nmol/kg subcutaneous twice a week for 5 weeks, mean ± SEM, 6 mice

human GLP-1 receptor, sequence (P43220 24-463): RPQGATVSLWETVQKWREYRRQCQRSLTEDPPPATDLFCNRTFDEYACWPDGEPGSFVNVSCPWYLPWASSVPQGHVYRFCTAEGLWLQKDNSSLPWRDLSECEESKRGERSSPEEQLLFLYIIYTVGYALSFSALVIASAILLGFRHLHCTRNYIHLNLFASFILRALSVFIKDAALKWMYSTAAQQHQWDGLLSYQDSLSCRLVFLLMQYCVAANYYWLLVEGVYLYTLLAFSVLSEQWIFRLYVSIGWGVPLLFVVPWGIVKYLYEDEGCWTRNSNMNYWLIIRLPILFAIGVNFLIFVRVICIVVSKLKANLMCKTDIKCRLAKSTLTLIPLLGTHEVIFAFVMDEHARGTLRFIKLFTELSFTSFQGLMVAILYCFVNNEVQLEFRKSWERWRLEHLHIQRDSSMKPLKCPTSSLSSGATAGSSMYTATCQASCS
GCG receptor, sequence (P47871 26-477): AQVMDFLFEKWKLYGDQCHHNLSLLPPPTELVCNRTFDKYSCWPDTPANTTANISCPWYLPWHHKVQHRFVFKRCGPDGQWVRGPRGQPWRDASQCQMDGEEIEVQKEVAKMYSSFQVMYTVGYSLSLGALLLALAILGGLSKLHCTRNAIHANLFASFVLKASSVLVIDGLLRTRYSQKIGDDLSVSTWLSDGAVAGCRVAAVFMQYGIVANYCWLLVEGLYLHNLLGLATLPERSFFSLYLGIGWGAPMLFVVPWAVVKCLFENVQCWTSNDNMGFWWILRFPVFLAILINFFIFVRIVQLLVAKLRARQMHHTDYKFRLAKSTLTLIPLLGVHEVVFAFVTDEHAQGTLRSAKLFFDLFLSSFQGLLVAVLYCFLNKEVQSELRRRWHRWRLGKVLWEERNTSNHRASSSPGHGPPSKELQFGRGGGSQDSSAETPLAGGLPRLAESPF

SMILES: CC[C@H](C)[C@H](NC(=O)[C@H](CCCCNC(=O)COCCOCCNC(=O)CC[C@H](NC(=O)CCCCCCCCCCCCCCCCCCC(=O)O)C(=O)O)NC(=O)[C@H](CC(=O)O)NC(=O)[C@H](CC(C)C)NC(=O)[C@H](CC(C)C)NC(=O)[C@@H](NC(=O)[C@H](CO)NC(=O)[C@H](Cc1ccc(O)cc1)NC(=O)[C@H](CC(=O)O)NC(=O)[C@H](CO)NC(=O)[C@@H](NC(=O)[C@H](Cc1ccccc1)NC(=O)[C@@H](NC(=O)CNC(=O)[C@H](CCC(N)=O)NC(=O)C(C)(C)NC(=O)[C@@H](N)Cc1c[nH]cn1)[C@@H](C)O)[C@@H](C)O)[C@@H](C)CC)C(=O)N[C@@H](C)C(=O)N[C@@H](C)C(=O)N[C@@H](CCC(N)=O)C(=O)N[C@@H](C)C(=O)N[C@@H](Cc1ccccc1)C(=O)N[C@H](C(=O)N[C@@H](CCC(=O)O)C(=O)N[C@@H](Cc1c[nH]c2ccccc12)C(=O)N[C@@H](CC(C)C)C(=O)N[C@H](C(=O)N[C@@H](C)C(=O)NCC(=O)NCC(=O)N1CCC[C@H]1C(=O)N[C@@H](CO)C(=O)N[C@@H](CO)C(=O)NCC(=O)N[C@@H](C)C(=O)N1CCC[C@H]1C(=O)N1CCC[C@H]1C(=O)N1CCC[C@H]1C(=O)N[C@@H](CO)C(N)=O)[C@@H](C)CC)[C@@H](C)CC [Polypeptide 1] (H-H[Aib]QGTFTSDYSILLDK([AEEA-γGlu-C20 diacid])IAAQAFIEWLIAGGPSSGAPPPS-NH2; N-terminus and C-terminus assumed)
- GCG activity (in words) (GCG receptor; comment on Table 2): significantly increased
- GCG activity compared with control LY3437943 (GCG receptor; [1]): better than those of control LY3437943
- pEC50 (GCG receptor; read-out: EC50 GCGR, operation similar to GLP-1R assay): 9.42
- GLP-1R activity compared with control LY3437943 (human GLP-1 receptor; 0.01% casein system): better than that of control LY3437943
- GLP-1R activity compared with control LY3437943 (human GLP-1 receptor; 2% mouse serum albumin system): better than that of control LY3437943
- GLP-1 activity compared with control LY3437943 (human GLP-1 receptor; [1]): better than those of control LY3437943
- pEC50 (human GLP-1 receptor; read-out: EC50 GLP-1R, PBS containing 0.25% FBS/0.01% BSA, 5 hours incubation): 7.81
- GIP activity compared with control LY3437943 (GIP receptor; [1]): better than those of control LY3437943
- pEC50 (GIP receptor; read-out: EC50 GIPR, operation similar to GLP-1R assay): 9.94
- body fat ratio of DIO obese mice (in words) (DIO mice; [2]): significantly reduce
- body weight of DIO obese mice (in words) (DIO mice; [2]): significantly reduce
- blood glucose (in words) (DIO mice; DIO mice, 30 nmol/kg): significantly reduce
- liver function (in words) (DIO mice; DIO mice, 30 nmol/kg): improve liver function
- low-density lipoprotein cholesterol (in words) (DIO mice; DIO mice, 30 nmol/kg): significantly reduce
- plasma total cholesterol (in words) (DIO mice; DIO mice, 30 nmol/kg): significantly reduce
- ALT (DIO mice; [3]): 19.650 U/L
- AST (DIO mice; [3]): 51.755 U/L
- Fasting blood glucose (DIO mice; [3]): 6.9 mmol/L
- LDL-C (plasma low-density lipoprotein cholesterol) (DIO mice; [3]): 0.403 mmol/L
- TC (plasma total cholesterol) (DIO mice; [3]): 3.740 mmol/L
- % Change in weight since inception (DIO mice; [4]): −26.49 ± 3.97 %
- Body fat ratio (%) (DIO mice; [4]): 26.49 ± 4.11 %
- reduction extent of body weight and body fat ratio compared with Tirzepatide (DIO mice; DIO mice, both 30 nmol/kg): significantly greater than that of the control Tirzepatide
